# Measured values as given in PubChem BioAssay AID463173 (ICCB-Longwood Screening Facility, Harvard Medical School, 2010).
# The whole screen tested about 52,000 compounds, of which about 1,700 (3.3%) were called active. No stated cut-off is given here; in the data, active means survival mostly below about 52% (no sharp cut-off); inactive means mostly above about 56%. Some of the results follow.
# Test system: Wild type
# Experiment: S. aureus survival, RN4220 and DeltatarO strains – OD600, teichoic acid synthesis inhibitors, primary screen (AID 463173)
# Conditions: S. aureus RN4220 wild type/DeltatarO growth, OD600, 18 h, active compounds read low, screened at 18.75 µg/mL (by protocol)
row,Structure (SMILES),survival
1,Cc1cccn2c(=O)c3cc(C#N)c(=O)n(-c4nnc(SCc5ccc(F)cc5)s4)c3nc12,inactive: 127%
2,CN(C)N1C(=O)CC(n2cnc3ccccc32)C1=O (stereo unspecified),inactive: 115%
3,Cc1cc(C)c(NC(=O)CSc2nc(=O)n(Cc3cccnc3)c3c2CCC3)c(C)c1,inactive: 126%
4,COc1ccccc1Nc1ncc2c(n1)CCN(Cc1cc(F)cc(F)c1)C2,inactive: 82%
5,COc1ccc(N2CCN(C3(c4ccccc4)C(=O)c4ccccc4C3=O)CC2)cc1,inactive: 92%
6,Cc1ccc(Cn2c(CO)cnc2SCC(=O)NCc2ccccc2Cl)cc1,inactive: 80%
7,Cc1ccc(Cl)cc1N(C)C(=O)c1cc2c(Cl)nc3ccccc3c2s1,inactive: 70%
8,Cc1cc(C)c2nc(NCCNC(=O)C3CCCCC3)c(C#N)cc2c1,inactive: 101%
9,CCCCCCNC(=O)c1c[nH]c2ccc(S(=O)(=O)N(C)c3ccc(C(C)C)cc3)cc2c1=O,inactive: 74%
10,N#C/C(=C/c1ccccc1Cl)c1nc2ccccc2c(=O)[nH]1,inactive: 65%
11,Cc1nc2ccccn2c1C(=O)NC1CCCC1,inactive: 103%
12,O=C(C1CCC(Cn2c(=O)c3sccc3n(Cc3cccc(F)c3)c2=O)CC1)N1CCOCC1 (stereo unspecified),inactive: 65%
13,C=CCOc1c(Br)cc(CNCCCN2CCOCC2)cc1OC,inactive: 104%
14,CC(=O)Nc1ccc(Nc2nc3c(S(=O)(=O)c4cc(C)ccc4C)nnn3c3ccsc23)cc1,inactive: 98%
15,Cc1cc2nn(-c3ccc(F)cc3)nc2cc1NC(=O)c1cccc([N+](=O)[O-])c1C,inactive: 75%
16,COc1cccc(OC(=O)CSc2nnc(-c3cccs3)o2)c1,inactive: 117%
17,Cc1cccc(C(=O)Nc2cc3nn(-c4ccc(C(C)C)cc4)nc3cc2C)c1,inactive: 65%
18,COC(=O)c1ccc(Nc2nc(-c3ccccc3Cl)nc3ccccc23)cc1,inactive: 36%
19,Clc1cccc(-c2nc3ccccn3c2Nc2ccc3c(c2)OCCO3)c1,inactive: 77%
20,COc1ccc(N2C(=O)CSC23C(=O)N(CC(=O)Nc2ccccc2F)c2ccccc23)cc1 (stereo unspecified),inactive: 126%
21,Cc1cc(OC(C)C(=O)N2CCC(c3nc4ccccc4o3)CC2)ccc1Cl (stereo unspecified),inactive: 53%
22,Cc1ccc(CSCCNC(=O)C2CCN(S(=O)(=O)Cc3ccccc3)CC2)cc1,inactive: 105%
23,COc1cccc(CNC(=O)Cn2nc(-c3ccc(C)cc3)ccc2=O)c1,inactive: 59%

row,Structure (SMILES),survival
1,COc1ccccc1NC(=O)CSc1ccc(-c2ccccn2)nn1,inactive: 85%
2,Cc1ccc(N(C)C(CNS(=O)(=O)c2ccccc2)c2ccccc2)cc1 (stereo unspecified),inactive: 93%
3,CCCNC(=O)C1CCN(C(=O)N2CC(C)Oc3ccccc32)CC1 (stereo unspecified),inactive: 85%
4,CCn1ccc2cc(S(=O)(=O)N3CCCN(C(=O)Nc4cccc(SC)c4)CC3)ccc21,inactive: 60%
5,Cc1ccc(NC(=O)Cn2cc(C(=O)c3ccco3)c3ccccc32)cc1C,inactive: 59%
6,CCCCN(C)S(=O)(=O)c1ccc(NC2=NS(=O)(=O)c3ccccc32)cc1,inactive: 82%
7,COc1ccc(-n2ccnc2SCC(=O)Nc2cccc(OC)c2)cc1,inactive: 120%
8,Cc1cc2oc(C(=O)Nc3ccc(S(=O)(=O)N4CCC(C)CC4)cc3)cc(=O)c2cc1C,inactive: 93%
9,Cc1ccc(N2C(=O)CSC2=S)c(C)c1,inactive: 106%
10,CC(C)NC(=O)Cc1ccc(Br)cc1,inactive: 103%
11,Cc1ccc(-n2nc3c(N4CCC(C(=O)NC5CCCCC5)CC4)nnc(C)c3c2C)cc1,inactive: 71%
12,C=CCn1c(O)c(CN2CCOCC2)c(C)c(C#N)c1=O,inactive: 104%
13,COc1ccc(-n2ncc(C(=O)N3CCN(C(=O)c4ccco4)CC3)c2C2CCN(C(=O)OC(C)(C)C)CC2)cc1,inactive: 68%
14,CC(C)Cc1ccc(S(=O)(=O)NCc2nc3cccnc3n2Cc2ccccc2)cc1,inactive: 120%
15,O=C1c2[nH]nc(-c3ccccc3O)c2C(c2cccc(O)c2)N1Cc1cccnc1 (stereo unspecified),inactive: 87%
16,COc1ccc(-c2ccc(CNCCCSc3nnnn3C)o2)cc1Cl,inactive: 83%
17,CCc1ccc(/C=C(/C#N)C(=O)OC)s1,inactive: 107%
18,CC1(C)CC(NCc2ccccc2)CCO1 (stereo unspecified),inactive: 104%
19,CCCCCOc1ccccc1CN1C(=O)C(=O)c2cc(C)ccc21,inactive: 105%
20,O=C(O)CSCC(=O)Nc1cccc(C(F)(F)F)c1,inactive: 108%
21,COc1ccc(NC(=O)c2c(NCc3ccc(OC)c(OC)c3OC)sc3c2CCC3)c(OC)c1,inactive: 92%
22,Cc1ccc(/C=C/C(=O)N2CCC(c3nc4ccccc4o3)CC2)cc1,inactive: 98%
23,Cc1onc(-c2ccccc2)c1C(=O)NC(C)C,inactive: 111%

row,Structure (SMILES),survival
1,Cc1ccc(N(C)S(=O)(=O)c2ccc(-c3coc(C)n3)cc2)cc1,inactive: 70%
2,COc1ccccc1N1CCN(CCCNC(=O)c2nnc(Cc3ccc(F)cc3Cl)o2)CC1,inactive: 79%
3,Cc1ccc(NC(=O)CN2C(=O)COc3ccc(S(=O)(=O)N4CCOCC4)cc32)cc1N(C)C,inactive: 101%
4,Cc1cccc(-c2noc(-c3ccc(NCc4ccccc4)c([N+](=O)[O-])c3)n2)c1,inactive: 81%
5,CC1=C(c2ccc(C)c(C)c2)S(=O)(=O)N=C1N1CCC(C(=O)NCc2ccccc2C)CC1,inactive: 64%
6,Cc1cc(C)c2oc(-c3ccc(NC(=O)COc4ccccc4C)cc3)nc2c1,inactive: 78%
7,Fc1ccc(CSc2nncn3c2cc2occc23)c(Cl)c1,inactive: 88%
8,CCOc1ccc(CCNC(=O)c2cc3sccc3n2CC)cc1OCC,inactive: 88%
9,CCc1nc2ccc(C(=O)N3CCN(c4cc(C)ccc4C)CC3)cc2nc1CC,inactive: 65%
10,CC1=C(C(N)=O)C(c2cccc(Br)c2)n2nc(SCc3ccccc3Cl)nc2N1 (stereo unspecified),inactive: 89%
11,COc1cc(C2C(C(=O)Nc3ccc(Cl)cc3)=C(C)Nc3nc(SC)nn32)cc(OC)c1OC (stereo unspecified),inactive: 80%
12,COc1cc(CN(C(=O)Nc2cccc(Cl)c2)c2ccccn2)cc(OC)c1OC,inactive: 82%
13,COC(=O)c1nnn(CC(=O)Nc2c(C)cccc2C)c1N,inactive: 66%
14,CC(C)CCNC(=O)c1ccc2nc(CCc3ccccc3)oc2c1,inactive: 22%
15,Cc1ccc(C(=O)NCC(c2cccs2)S(=O)(=O)c2ccccc2)cc1C (stereo unspecified),inactive: 140%
16,S=c1[nH]nc(CNc2cccc(Cl)c2)o1,inactive: 115%
17,CC(C)Nc1nc2c(S(=O)(=O)c3cccc(Cl)c3)nnn2c2ccsc12,inactive: 92%
18,CC(=O)c1cccc(NC(=O)CCn2nc(C)c(S(=O)(=O)N(C)C)c2C)c1,inactive: 78%
19,CCOC(=O)c1c(C)oc2nc(C)nc(NCCc3ccc(OC)c(OC)c3)c12,inactive: 70%
20,CCCCC(CC)CNC(=O)CCCCn1c(=O)[nH]c2ccsc2c1=O (stereo unspecified),inactive: 77%
21,COC(=O)c1sc(N2C(=O)c3oc4ccc(C)cc4c(=O)c3C2c2ccc(O)c(OC)c2)nc1C (stereo unspecified),inactive: 150%
22,COc1ccc(OCc2nnc(SCC(=O)NCc3ccco3)o2)cc1,inactive: 92%
23,COC(=O)c1ccc(C(=O)OC)c(NC(=O)c2c(-c3ccccc3)noc2C)c1,inactive: 119%

row,Structure (SMILES),survival
1,COc1ccc(CCNc2nc(SCc3ccccc3F)nc3ccccc23)cc1OC,inactive: 87%
2,CN(c1ccc(C(=O)N2CCc3ccccc3C2)cc1)S(C)(=O)=O,inactive: 116%
3,CCc1ccc(NC(=O)C2CCCN2S(=O)(=O)c2ccc3nc(-c4ccccc4)[nH]c3c2)cc1 (stereo unspecified),inactive: 96%
4,Cc1csc2nc(COc3ccc(NC(=O)C(C)C)cc3)cc(=O)n12,inactive: 92%
5,CCOC(=O)Cc1c(C)nc2cc(-c3ccc(C(C)(C)C)cc3)nn2c1C,active: -2%
6,Cn1c(=O)n(CC(=O)O)c(=O)c2c1nc1n2CCCN1c1ccc(Cl)cc1,inactive: 94%
7,CCOC(=O)c1c(NC(=O)CSc2nc(-c3ccc(OC)cc3)cc(C(F)(F)F)n2)sc(C)c1C,inactive: 77%
8,Cc1ccc(NC(=O)c2c3c(nc4ccccc24)C(=O)N(C2CCCCC2)C3)cc1F,inactive: 66%
9,Cc1ccccc1NC(=O)CC1NCCNC1=O (stereo unspecified),inactive: 128%
10,C=CCc1ccccc1OCc1nc2ccc(C)cc2[nH]1,inactive: 78%
11,COc1ccc(-n2ncc(C(=O)N3CCN(C4CCCCC4)CC3)c2C2CCN(C(=O)OC(C)(C)C)CC2)cc1,inactive: 67%
12,COc1ccc(C2CC(=O)c3cnc4c(-c5ccc(F)cc5)c(C)nn4c3C2)cc1OC (stereo unspecified),inactive: 74%
13,CCN(CC)S(=O)(=O)c1ccc2c(c1)c(=O)c(C(=O)NCCc1ccccc1)cn2C,inactive: 94%
14,CCOc1ccccc1NC(=O)c1cc2cc3cc(C)ccc3nc2s1,inactive: 81%
15,COc1ccc(-n2c(SCC(=O)NCc3ccco3)nc3c([nH]c4ccccc43)c2=O)cc1,inactive: 75%
16,CCCNC(=O)CSc1c2c(nc3ccc(Cl)cc13)CCCC2,inactive: 72%
17,CCOC(=O)c1cc2c(=O)n3ccccc3nc2n(Cc2ccco2)c1=NC(=O)c1cccc(C)c1,inactive: 67%
18,CCCn1c2ccccc2c2cnn(CC(=O)N(CC)c3cc(C)ccc3C)c(=O)c21,inactive: 90%
19,O=C(O)CN1C(=O)/C(=N\N2C(=O)CSC2=S)c2ccccc21,inactive: 90%
20,Cc1ccc(NC(=O)CSc2nc3ccccc3c(=O)n2CCC(=O)NC2CCCCC2)cc1C,inactive: 93%
21,CCOc1ccc(NC(=O)CC2C(=O)N(c3ccccc3)C(=O)N2C2CCCC2)cc1 (stereo unspecified),inactive: 80%
22,Cc1cccc(N2CCN(C(=O)c3cnn(-c4ccc(F)cc4F)c3C3CCN(C(=O)OC(C)(C)C)CC3)CC2)c1C,inactive: 99%
